Data on one molecule can be found in US6284456, “Transcriptional coactivator that interacts with Tat protein and regulates its binding to TAR RNA, methods for modulating Tat transactivation, and uses therefor” (The Salk Institute for Biological Studies, dated 2001).

The assay has as its target GST (glutathione S-transferase) on glutathione beads (Schistosoma japonicum (Blood fluke), UniProt P08515 = GST). Description: glutathione bead pull-down of recombinant cyclin T1, immunoblot. On the technique in general: In western blotting, separated proteins are transferred to a membrane and probed.

B1: recombinant cyclin T1, thrombin-cleaved from GST-cyclin T1 (other)
chain: [letters of about 300 residues omitted]TILNMISQSSSDTTIAGLMSMSTSTTSAVPSLPVSEESSSNLTSVEMLPGKRWLSSQPSFKLEPTQGHRTSENLALTGVDHSLPQDGSNAFISQKQNSKSVPSAKVSLKEYRAKHAEELAAQKRQLENMEANVKSQYAYAAQNLLSHHDSHSSVILKMPIEGSENPERPFLEKADKTALKMRIPVAGGDKAASSKPEEIKMRIKVHAAADKHNSVEDSVTKSREHKEKHKTHPSNHHHHHNHHSHKHSHSQLPVGTGNKRPGDPKHSSQTSNLAHKTYSLSSSFSSSSSTRKRGPSEETGGAVFDHPAKIAKSTKSSSLNFSFPSLPTMGQMPGHSSDTSGLSFSQPSCKTRVPHSKLDKGPTGANGHNTTQTIDYQDTVNMLHSLLSAQGVQPTQPTAFEFVRPYSDYLNPRSGGISSRSGNTDKPRPPPLPSEPPPPLPPLPK
With B1, the binding result was “no binding”.
